Experimental data reported in the supplement of paper PMC12217912.
This is one part of the list. Sequences were assembled here from the parent chain. Values near 0.05 are background.

B1: TEV protease; numbered along this chain (parent)
chain: MGESLFKGPRDYNPISSSICHLTNESDGHTTSLYGIGFGPFIITNKHLFRRNNGTLVVQSLHGVFKVKDTTTLQQHLVDGRDMIIIRMPKDFPPFPQKLKFREPQREERICLVTTNFQTKSMSSMVSDTSCTFPSGDGIFWKHWIQTKDGQCGSPLVSTRDGFIVGIHSASNFTNTNNYFTSVPKNFMELLTNQEAQQWVSGWRLNADSVLWGGHKVFMVKPEEPFQPVKEATQL

Variants of: B1
Assay: raw area under fraction-flipped curve 0-4 h after induction (AUC4h, not background-subtracted), DNA-recorder readout of cleavage of the substrate (dimensionless); higher = more cleavage of the substrate by the protease variant
Details: temperature: 34 °C; time window: 0-4 h after rhamnose induction
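Note: Bxb1 expression induced with 0.2% (w/v) L-rhamnose at OD600 near 0.5, cultures sampled hourly, flipped fraction per protease–substrate barcode pair counted by paired-end Illumina sequencing.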

Variant | area with substrate ENLYFQC | area with substrate ENLYFQE | area with substrate ENLYFQF | area with substrate ENLYFQG | area with substrate ENLYFQI | area with substrate ENLYFQL | area with substrate ENLYFQM | area with substrate ENLYFQN | area with substrate ENLYFQS | area with substrate ENLYFQV | area with substrate ENLYFQY | area with substrate ENLYFQD | area with substrate ENLYFQK | area with substrate ENLYFQT | area with substrate ENLYFQW | area with substrate ENLYFQR | area with substrate ENLYFQH | area with substrate ENLYFQP | area with substrate ENLYFQQ
MGESLFKGPRDYNPISSSICHLTNESDGHTTSLYGIGFGPFIITNKHLFRRNNGTLVVQSLHGVFKVSDTTTLQQHLVDGRDMIIIRMPKDFPPFPQKLKFREPQREERICLVTTNFQTKSMSSMVSDTSCTFPSGDGIFWKHWIQTKDGQCGSPLVSTRDGFIVGIHSASNFTNTNNYFTSVPKNFMELLTNQEAQQWVSGWRLNADSVLWGGHKVFMVKPEEPFQPVKEATQL [K68S] | 0.115 | 0.0684 | 0.0698 | 0.106 | 0.0635 | 0.0694 | 0.0952 | 0.0918 | 0.105 | 0.0759 | 0.0566 | – | – | – | – | – | – | – | –
MGESLFKGPRDYNPISSSICHLTNESDGHTTSLYGIGFGPFIITNKHLFRRNNGTLVVQSLHGVFKVKDTTTLQYHLVDGRDMIIIRMPKDFPPFPQKLKFREPQREERICLVTTNFQTKSMSSMVSDTSCTFPSGDGIFWKHWIQTKDGQCGSPLVSTRDGFIVGIHSASNFTNTNNYFTSVPKNFMELLTNQEAQQWVSGWRLNADSVLWGGHKVFMVKPEEPFQPVKEATQL [Q75Y] | 0.0764 | – | – | 0.0757 | 0.0601 | 0.0539 | 0.0595 | 0.0615 | 0.0751 | 0.0648 | – | 0.0602 | 0.0545 | 0.0539 | 0.0584 | – | – | – | –
MGESLFKGPRDYNPISSSICHLTNESDGHTTSLYGIGFGPFIITNKHLFRRNNGTLVVQSLHGVFKVKDTTTLQQHLVDGRCMIIIRMPKDFPPFPQKLKFREPQREERICLVTTNFQTKSMSSMVSDTSCTFPSGDGIFWKHWIQTKDGQCGSPLVSTRDGFIVGIHSASNFTNTNNYFTSVPKNFMELLTNQEAQQWVSGWRLNADSVLWGGHKVFMVKPEEPFQPVKEATQL [D82C] | 0.0474 | – | – | 0.0478 | 0.0529 | 0.0768 | – | 0.0444 | 0.0573 | – | – | – | 0.0654 | – | 0.0345 | 0.0466 | – | – | –
MGESLFKGPRDYNPISSSICHLTNESDGHTTSLYGIGFGPFIITNKHLFRRNNGTLVVQSLEGVFKVKDTTTLQQHLVDGRDMIIIRMPKDFPPFPQKLKFREPQREERICLVTTNFQTKSMSSMVSDTSCTFPSGDGIFWKHWIQTKDGQCGSPLVSTRDGFIVGIHSASNFTNTNNYFTSVPKNFMELLTNQEAQQWVSGWRLNADSVLWGGHKVFMVKPEEPFQPVKEATQL [H62E] | 0.101 | 0.0682 | 0.0786 | 0.106 | – | – | 0.0806 | 0.0681 | 0.0977 | – | – | – | – | 0.056 | 0.0657 | 0.0769 | 0.0576 | 0.0441 | –
MGESLFKGPRDYNPISSSICHLTNESDGHTTSLYGIGFGPFIITNKHLFRRNNGTLVVQSLPGVFKVKDTTTLQQHLVDGRDMIIIRMPKDFPPFPQKLKFREPQREERICLVTTNFQTKSMSSMVSDTSCTFPSGDGIFWKHWIQTKDGQCGSPLVSTRDGFIVGIHSASNFTNTNNYFTSVPKNFMELLTNQEAQQWVSGWRLNADSVLWGGHKVFMVKPEEPFQPVKEATQL [H62P] | 0.105 | – | – | 0.0857 | – | – | – | 0.0624 | 0.0799 | 0.0677 | – | – | – | 0.0591 | – | 0.0596 | 0.0682 | 0.0535 | –
MGESLFKGPRDYNPISSSICHLTNESDGHTTSLYGIGFGPFIITNKHLFRRNNGTLVWQSLHGVFKVKDTTTLQQHLVDGRDMIIIRMPKDFPPFPQKLKFREPQREERICLVTTNFQTKSMSSMVSDTSCTFPSGDGIFWKHWIQTKDGQCGSPLVSTRDGFIVGIHSASNFTNTNNYFTSVPKNFMELLTNQEAQQWVSGWRLNADSVLWGGHKVFMVKPEEPFQPVKEATQL [V58W] | 0.0736 | – | – | – | 0.0474 | – | 0.0681 | – | 0.0683 | 0.0352 | – | – | – | – | – | – | – | – | –
MGESLFKGPRDYNPISSSICHLTNESDGHTTSLYGIGFGPFIITNKHLFRRNNGTLVVQSLHGVFKVKDTTMLQQHLVDGRDMIIIRMPKDFPPFPQKLKFREPQREERICLVTTNFQTKSMSSMVSDTSCTFPSGDGIFWKHWIQTKDGQCGSPLVSTRDGFIVGIHSASNFTNTNNYFTSVPKNFMELLTNQEAQQWVSGWRLNADSVLWGGHKVFMVKPEEPFQPVKEATQL [T72M] | 0.103 | – | – | – | 0.0602 | 0.0598 | 0.0876 | 0.0772 | 0.0956 | – | 0.0777 | – | – | 0.066 | – | – | 0.0835 | – | 0.0704
MGESLFKGPRDYNPISSSICHLTNESDGHTTSLYGIGFGPFIITNKHLFRRNNGTLVVQSLHGVFKVKDTTLLQQHLVDGRDMIIIRMPKDFPPFPQKLKFREPQREERICLVTTNFQTKSMSSMVSDTSCTFPSGDGIFWKHWIQTKDGQCGSPLVSTRDGFIVGIHSASNFTNTNNYFTSVPKNFMELLTNQEAQQWVSGWRLNADSVLWGGHKVFMVKPEEPFQPVKEATQL [T72L] | 0.112 | – | – | 0.092 | 0.0312 | – | 0.0886 | – | 0.102 | – | – | – | 0.0544 | 0.0827 | 0.0614 | – | – | – | –
MGESLFKGPRDYNPISSSICHLTNESDGHTTSLYGIGFGPFIITNKHLFRRNNGTLVVQSLHGVFKVKDTTTLLQHLVDGRDMIIIRMPKDFPPFPQKLKFREPQREERICLVTTNFQTKSMSSMVSDTSCTFPSGDGIFWKHWIQTKDGQCGSPLVSTRDGFIVGIHSASNFTNTNNYFTSVPKNFMELLTNQEAQQWVSGWRLNADSVLWGGHKVFMVKPEEPFQPVKEATQL [Q74L] | 0.108 | – | – | 0.0977 | 0.0547 | – | – | 0.0626 | 0.1 | – | 0.0917 | – | – | – | 0.0697 | 0.0776 | – | – | 0.0709
MGESLFKGPRDYNPISSSICHLTNESDGHTTSLYGIGFGPFIITNKHLFRRNNGRLVVQSLHGVFKVKDTTTLQQHLVDGRDMIIIRMPKDFPPFPQKLKFREPQREERICLVTTNFQTKSMSSMVSDTSCTFPSGDGIFWKHWIQTKDGQCGSPLVSTRDGFIVGIHSASNFTNTNNYFTSVPKNFMELLTNQEAQQWVSGWRLNADSVLWGGHKVFMVKPEEPFQPVKEATQL [T55R] | 0.138 | – | – | 0.113 | 0.058 | 0.0677 | – | – | 0.096 | 0.0697 | 0.073 | – | 0.047 | 0.049 | 0.0873 | 0.0623 | – | – | –
